Test results published in PubChem BioAssay AID1347073 (National Center for Advancing Translational Sciences (NCATS), 2019).
Screen size: about 45,000 compounds; about 200 (0.44%) were called active. About 7% were inconclusive and are not listed. The call rests on the fitted dose curve; in most records, active means well fitted activation curve with a large enough effect; inconclusive means small, poorly fitted or top-dose-only effect; inactive means no such curve, though single readings can be large or run the other way. The list shows a part of the results.

Assay: qHTS of TDP-43 Inhibitors: NCGC Sytravon Library Screen; further: 0% is about no effect; nearly all actives have a fitted effect of over 55% in size
Settings: yeast TDP-43 toxicity rescue, BacTiter-Glo growth, 24 h; series mostly up to 46.1 µM; growth rescue (activation): at the top concentration
Procedure, shortened: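 TDP-43-expressing yeast, pregrown in raffinose, seeded at OD600 0.02 in galactose medium with compound for 24 hr at 30 deg C. Growth read by BacTiter-Glo luminescence, so rescue of toxicity appears as activation.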

For O=C(Nc1cccc(Cl)c1)c1ccc2c(c1)SC1=NS(=O)(=O)CCN12, which “growth rescue (activation)” value is on record?
The value was inactive: 16.1%.

Which “growth rescue (activation)” value does the source give for CC(C(=O)Nc1ccccc1)N(c1cccc(Cl)c1)S(C)(=O)=O (stereo unspecified) here?
The value was inactive: -3.18%.

With O=C1Nc2ccc(S(=O)(=O)NCC3CCCO3)c3cccc1c23 (stereo unspecified) as the molecule, how does the “growth rescue (activation)” value read?
The value was inactive: -0.131%.

For CCc1ccccc1NC(=O)c1noc(C(C)C)c1[N+](=O)[O-], which “growth rescue (activation)” value is on record?
The value was inactive: 25.9%.

Which “growth rescue (activation)” value does the source give for O=C(Nc1ccccc1F)c1cc(S(=O)(=O)N2CCOCC2)cs1 here?
The value was inactive: 20.1%.

For COc1nccnc1NS(=O)(=O)c1ccc(NC(=O)c2ccccc2Br)cc1, which “growth rescue (activation)” value is on record?
Its value is inactive: 13.2%.

With CC(C)c1nc(SCC(=O)NC(=O)NC(C)(C)C)n[nH]1 as the molecule, how does the “growth rescue (activation)” value read?
Its value is inactive: 0.246%.

Which “growth rescue (activation)” value does the source give for O=C(COC(=O)C1CCN(S(=O)(=O)c2cccs2)CC1)Nc1ccccc1Br here?
The value was inactive: 20.2%.

For C=CCn1c(C)c(C(C)=O)c(N2CCN(c3ccccc3)CC2)nc1=S, which “growth rescue (activation)” value is on record?
The value was inactive: -7.72%.

For Nc1nc(-c2nonc2N)no1, which “growth rescue (activation)” value is on record?
Its value is inactive: 12.8%.

With O=C(NC1CCN(C(=O)Nc2ccccc2Cl)CC1)c1ccco1 as the molecule, how does the “growth rescue (activation)” value read?
The value was inactive: 15.7%.

With CC1(C)CC(=O)C2=C(C1)Nc1ccccc1[S@]2=O as the molecule, how does the “growth rescue (activation)” value read?
The value was inactive: 7.8%.

Which “growth rescue (activation)” value does the source give for CCOC(=O)C1(Cc2ccccc2)CCN(Cc2cc(OC)c3c(c2)OCO3)CC1 here?
The value was inactive: 17.8%.

For COc1ccccc1NC(=O)NCC1CC1(Cl)Cl (stereo unspecified), which “growth rescue (activation)” value is on record?
The value was inactive: -3.38%.

Which “growth rescue (activation)” value does the source give for N#CC1(C#N)CC(C=O)=C(N)C1(C#N)CC(=O)C12CC3CC(CC(C3)C1)C2 (stereo unspecified) here?
The value was inactive: 22.3%.

Which “growth rescue (activation)” value does the source give for Fc1cccc2sc(Nc3nnc(-c4ccccc4)o3)nc12 here?
The value was inactive: -39.6%.

With O=C(Nc1cccc([N+](=O)[O-])c1)C1CCN(C(=O)Cc2ccccc2)CC1 as the molecule, how does the “growth rescue (activation)” value read?
The value was inactive: 5.72%.

For COc1ccc(N(CC(O)CN2CCOCC2)S(=O)(=O)c2ccccc2)cc1 (stereo unspecified), which “growth rescue (activation)” value is on record?
The value was inactive: 1.61%.

Which “growth rescue (activation)” value does the source give for Cc1cc(C)n(C(=O)c2ccc(C)c(F)c2F)n1 here?
The value was inactive: 11%.

With COc1ccc(CNC(=O)C(OC(=O)c2ccco2)c2ccc(F)cc2)cc1 (stereo unspecified) as the molecule, how does the “growth rescue (activation)” value read?
The value was inactive: 16.4%.

For CC(=O)c1cccc(NCC(=O)c2ccc(C)c([N+](=O)[O-])c2)c1, which “growth rescue (activation)” value is on record?
Its value is inactive: -9.17%.

Which “growth rescue (activation)” value does the source give for CCCNC(=O)c1ccc(COc2ccc(C(C)(C)C)cc2)o1 here?
Its value is inactive: 4.13%.

Which “growth rescue (activation)” value does the source give for O=C(O)c1ccc(Cl)c(S(=O)(=O)Nc2ccccc2C(=O)Nc2ccc(Cl)cc2)c1 here?
Its value is inactive: -5.42%.

For O=C(COC(=O)c1ccc([N+](=O)[O-])o1)NC1CCS(=O)(=O)C1 (stereo unspecified), which “growth rescue (activation)” value is on record?
The value was inactive: -8.48%.

For N#CCC(=O)Nc1ccc(C(=O)OCC(=O)NC(=O)NCc2ccco2)cc1, which “growth rescue (activation)” value is on record?
The value was inactive: 6.25%.

With COc1cc(CC(=O)OCC(=O)NCc2cccs2)cc(OC)c1OC as the molecule, how does the “growth rescue (activation)” value read?
The value was inactive: 11.8%.

For Oc1ccc(C2=Nn3c(nnc3-c3ccco3)SC2)cc1O, which “growth rescue (activation)” value is on record?
The value was inactive: 4.94%.

For CN(C)c1ccc(N=Nc2ccccc2C(=O)OCC(=O)Nc2ccccc2C(F)(F)F)cc1, which “growth rescue (activation)” value is on record?
Its value is inactive: 0.02%.

For COCc1nnc(NC(=O)COc2ccc3c(c2)OCO3)s1, which “growth rescue (activation)” value is on record?
Its value is inactive: 17.6%.

With CN(c1cc(=O)n2ccccc2n1)C1CCCCC1 as the molecule, how does the “growth rescue (activation)” value read?
Its value is inactive: -13.5%.

Which “growth rescue (activation)” value does the source give for Cc1oc(-c2cccs2)nc1CS(=O)CC(=O)NCc1ccc2c(c1)OCO2 (stereo unspecified) here?
Its value is inactive: -2.32%.

For COc1ccccc1C(O)(C(=O)N(NC(C)=O)c1ccccc1)c1ccccc1OC, which “growth rescue (activation)” value is on record?
The value was inactive: 5.37%.

For O=C1NCCN(Cc2ccc(Cl)c(F)c2)C1CC(=O)N1CCCO1 (stereo unspecified), which “growth rescue (activation)” value is on record?
Its value is inactive: 4.79%.

Which “growth rescue (activation)” value does the source give for O=c1[nH]c(CN2CCOCC2)nc2ccccc12 here?
The value was inactive: 5.86%.

For CCOC(=O)c1[nH]c(C)c(/C(O)=C2\C(=O)C(=O)N(CCN3CCOCC3)C2c2ccco2)c1C (stereo unspecified), which “growth rescue (activation)” value is on record?
The value was inactive: 3.73%.

With Nc1nc(SCC(=O)Nc2cccc([N+](=O)[O-])c2)n[nH]1 as the molecule, how does the “growth rescue (activation)” value read?
Its value is inactive: 19.5%.

Which “growth rescue (activation)” value does the source give for COCCCN=Cc1c(C)[nH]n(-c2ccc(Br)cc2Br)c1=O here?
The value was inactive: -16.4%.

With O=C(Nc1ccccc1)c1cc(C2CCCCN2C(=O)CCCc2ccccc2)on1 (stereo unspecified) as the molecule, how does the “growth rescue (activation)” value read?
The value was inactive: 14.8%.

With Cc1ccc(-c2nn(-c3ccccc3)cc2CN(C)C(=O)CCC(=O)O)cc1C as the molecule, how does the “growth rescue (activation)” value read?
Its value is inactive: 15.8%.

For CNS(=O)(=O)c1ccc(NC(=O)c2cncc(Br)c2)cc1, which “growth rescue (activation)” value is on record?
The value was inactive: -5.09%.

With Cc1ccnc(NS(=O)(=O)c2ccc(NC(=O)c3ccc4c(c3)OCCO4)cc2)n1 as the molecule, how does the “growth rescue (activation)” value read?
The value was inactive: -9.09%.

Which “growth rescue (activation)” value does the source give for O=C1NC2(CCCCC2)C(=O)N1CC(=O)N1CCc2ccccc21 here?
Its value is inactive: -28.1%.

With COc1cccc(CSCC(=O)NCCc2ccccc2)c1OC as the molecule, how does the “growth rescue (activation)” value read?
Its value is inactive: 22.8%.

For CCOc1ccc(-c2cn(-c3cccc(SC)c3)c(=O)[nH]2)cc1, which “growth rescue (activation)” value is on record?
The value was inactive: 22.3%.

For COc1ccccc1NC(=O)Nc1ccc(F)c(F)c1, which “growth rescue (activation)” value is on record?
The value was inactive: 26.1%.

Which “growth rescue (activation)” value does the source give for NS(=O)(=O)c1ccc(NC(=S)NCc2ccccc2)cc1 here?
Its value is inactive: -1.81%.

With Cc1ncoc1C(=O)N1CCCC(C(=O)c2cccc(OC(C)C)c2)C1 (stereo unspecified) as the molecule, how does the “growth rescue (activation)” value read?
The value was inactive: 0.192%.

For C[N+]1(CC2COC3(CCCCC3)O2)CCCCC1 (stereo unspecified), which “growth rescue (activation)” value is on record?
Its value is inactive: -30.8%.

For COC(=O)Nc1ccc(S(=O)(=O)NC2CCS(=O)(=O)C2)cc1 (stereo unspecified), which “growth rescue (activation)” value is on record?
Its value is inactive: 26.5%.

For Cc1ccc(OCC(=O)OCC(=O)Nc2sccc2C(N)=O)cc1C, which “growth rescue (activation)” value is on record?
Its value is inactive: -17.8%.

For Cc1ccc(NC(=O)C2CCN(S(=O)(=O)c3c(C)noc3C)CC2)cc1C, which “growth rescue (activation)” value is on record?
Its value is inactive: 0.525%.

For CC(C)c1cccc(-c2csc(C(C)(O)c3ccccc3)n2)c1 (stereo unspecified), which “growth rescue (activation)” value is on record?
Its value is inactive: -76.3%.

For Cc1ccc(/C=N/NC(=O)C[n+]2ccccc2)s1, which “growth rescue (activation)” value is on record?
The value was inactive: -3.12%.

With O=C(NCc1cccnc1)c1cc(C2CCCCN2S(=O)(=O)c2cccc3cccnc23)on1 (stereo unspecified) as the molecule, how does the “growth rescue (activation)” value read?
Its value is inactive: 10.1%.

With O=C(O)Cn1c(=O)c(F)cn(C2CCCO2)c1=O (stereo unspecified) as the molecule, how does the “growth rescue (activation)” value read?
The value was inactive: 16.9%.

Which “growth rescue (activation)” value does the source give for Cc1coc2c1c(C)cc1oc(=O)c(CC(=O)N[C@H](C(=O)O)C(C)C)c(C)c12 here?
The value was inactive: -0.879%.
